Reference: the supplement of paper PMC4466236
The full ranking holds about 33,000 sequences; the median of “E-score (dimensionless, -0.5 to 0.5)” is about -0.058, and the highest 2% start at about 0.35. Some of the results follow.

tested on: MvaT; experiment: PBM 8-mer E-score (mean of HK and ME arrays) (E-score (dimensionless, -0.5 to 0.5)); higher = stronger relative binding preference; most listed sequences are background and not binding sites
Experimental: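 Protein binding microarray: GST-tagged full-length MvaT (P. aeruginosa PAO1) bound to two universal double-stranded 60-mer arrays (ME and HK), each with a constant 25-mer primer and a variable 35-mer region covering all 8-mers. The 8-mer E-score (rank-based, range -0.5 to 0.5, >0.45 = specific binding) is the mean of the two arrays.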

Sequence | PBM 8-mer E-score
CCATGCAA | -0.0676
GCGACTAC | -0.0345
ACAACTCC | 0.0704
ACTGGCTG | -0.194
ATAATGGC | 0.234
GTCGAAAA | 0.174
AATGCTCC | -0.079
AGCCTGGG | -0.228
CAACCTAG | -0.119
CAGTCCCA | -0.127
AGAAGTTC | 0.223
CTATACGC | 0.0769
CTGCTTCC | -0.255
AATTAACA | 0.333
TGGCGACA | -0.132
TAAAACTA | 0.316
ATCCGGGG | -0.24
AAAGGTTC | -0.0305
TCAGTGCA | 0.00999
GAACACAC | -0.04
CAGCAGGA | -0.308
AACCGGGA | -0.146
AAGGGAAG | -0.1
CTTGGTCC | -0.233
CACAACAG | -0.00307

Sequence | PBM 8-mer E-score
AGAATACG | 0.0799
CAATGGTC | -0.157
CAAATCCG | -0.0845
GACCAGGC | -0.211
ACGCTTAT | 0.18
GAGTCCTA | -0.196
ATAGGGTA | 0.131
AACTCCAC | -0.05
AAGGTCAA | -0.0518
GCAGAGCA | -0.294
CTTGCGAC | -0.139
ATTTGGAA | 0.0956
TAATTCCA | 0.311
CTAGGATC | -0.252
AGATTAGC | 0.0442
GTGCAGAA | -0.0766
AGAGACAG | -0.0467
TCGGTGCA | -0.118
CTCACATA | 0.132
TAGTGGAA | 0.171
TGAAGGCA | -0.166
CATGCATA | 0.00319
GCTTAACA | 0.0832
CGGCCCCA | -0.221
ATCGAGCC | -0.173

Sequence | PBM 8-mer E-score
GCGCCGGA | -0.0918
CGGCGATC | -0.156
CCGGCAGA | -0.0459
AGCTGTGA | 0.0387
CTTTAGTA | 0.188
AGAATGAT | 0.133
AAATCCAG | -0.114
GTTCGTAA | 0.0968
GTTGTCCA | 0.0268
AAGTACTC | 0.137
CAATAGTA | 0.264
CCGGGTCC | -0.276
TAATACAA | 0.397
GATTATTA | 0.391
AATTTAGA | 0.183
AAGATTAT | 0.286
TCCCTTAA | 0.0713
GTTGCAGA | -0.0379
TTCTACAA | 0.142
AAATATGC | 0.305
GAATGGAC | -0.184
CCGTATTA | 0.121
TAGGTATA | 0.193
GGTGGCTA | -0.11
TCCGCCCA | -0.123

Sequence | PBM 8-mer E-score
AAATCCCA | 0.0842
CCAACCGC | -0.0513
AGTATCTA | 0.18
CCTTAGGC | -0.189
AGTGTGCG | -0.0111
ATTCGTCA | 0.0938
ACCCTGAC | -0.231
GGATCTGA | -0.13
CAATGGGA | -0.00579
ATGGTATC | -0.0093
GTTATTGA | 0.311
ATGGTGTC | -0.0135
ACGATTCC | -0.0656
GGGAAGTA | 0.0498
TCCCCGAA | -0.195
GGTCCTAA | -0.114
CGCCTAGA | -0.183
CATAGGCA | -0.0952
GTCACTTA | -0.00887
ATGGGCCG | -0.236
GACGCATC | -0.259
CCGCTGTA | -0.229
CGCCCACG | -0.225
CAATCGCA | -0.0362
ACGACTCA | -0.0313

Sequence | PBM 8-mer E-score
AAGAGGTC | -0.209
GCCGTTAA | 0.107
ACAGCCTA | -0.0691
ATCAACTG | -0.0168
CAGGAGAC | -0.135
GCATCCTA | -0.116
ACATAGCG | -0.0518
CTTTGCAC | 0.0726
ACCGCACG | -0.111
ACTCGCAC | -0.0164
ATATAGTG | 0.329
GAAGAGCC | -0.193
AGTCCGTA | -0.00293
CCCCTATC | -0.225
AGGTCATC | -0.299
GCCCCAAC | -0.164
CCCGTCGG | -0.203
GTTCACTA | 0.0607
CAATTGCG | 0.183
AATGTTCC | 0.0873
CTCGTTCA | -0.139
CTTAAATC | 0.0452
TCAAGTAA | 0.206
GCGTTCAA | -0.0793
ATAAGCCG | 0.0875

Sequence | PBM 8-mer E-score
ACAATTAT | 0.378
ATTTGTGG | 0.0909
ACCAGACT | -0.212
ACGAAGTG | -0.0845
CCAGTTAC | 0.14
ATCCCAGG | -0.151
CCTAAAAA | 0.000513
TGGCAAAA | 0.0112
AAGACGGC | -0.141
GAGTGCAA | 0.0672
GAATCTAC | -0.168
CTTAGTTC | 0.09
ACCGTTCT | -0.0781
CGCAATGC | -0.0897
ACCACAGT | -0.0435
ATGTTATG | 0.152
TCAAAGGA | -0.0398
CAGGACCC | -0.151
CGCAGTGA | -0.186
GTAGATAC | 0.111
CACCACTA | 0.0613
CCAGGACG | -0.236
GCAGGTCC | -0.225
CCACGAAC | -0.169
ACATGACG | -0.073

Sequence | PBM 8-mer E-score
ATTGTAAC | 0.297
AAGTTACG | 0.231
GCAGAAAC | -0.0778
AGATCGCG | -0.153
GCTAGATA | 0.0558
GACACGCA | -0.158
ACTAAAAG | 0.233
CTAAGAGA | 0.0176
GTATGGTA | 0.153
TATAGTCA | 0.226
CCAGACTC | -0.209
AAGCTGAG | -0.185
GAGAGCAC | -0.281
GACAGTAC | -0.0849
CGAGAACC | -0.191
CCCCTAGG | -0.311
AATTTTGA | 0.195
GATCAGTA | -0.0683
CCAAGGAA | -0.256
AGACTTTG | 0.164
AGGGGGGG | -0.254
ACTGCTAG | -0.177
CCCGTCGA | -0.154
GATAAAAA | 0.273
AAAGTGTC | 0.138

Sequence | PBM 8-mer E-score
ACTATGGA | -0.046
CCAAGTAG | 0.0793
CCTGGTCG | -0.203
CGAGATTC | -0.0719
CTGGCTGC | -0.258
CGTCCCTA | -0.147
CATGATAC | 0.111
ATTTTTTC | 0.132
ATATACTG | 0.322
AGGCAAGC | -0.342
CGAATGAA | 0.149
CTTTTGCC | -0.164
GGACAGCA | -0.053
ATTTCCTG | 0.129
GAGACCCC | -0.214
CCCCAAGG | -0.329
CTGCTTCA | -0.186
CAAAATTA | 0.3
AAATCCAC | 0.0368
GTTGCACA | -0.193
CCAACTGA | -0.0529
CGTCATAA | 0.142
AAACATGT | 0.27
GTACGATA | 0.0885
AACGTTTA | 0.214

Sequence | PBM 8-mer E-score
GCCACTCC | -0.235
ATTCACAG | 0.187
ATGAGAGG | -0.197
AGCCCGTA | -0.113
ACGAAGAA | -0.00559
AGAGCTTG | -0.246
CCCGTCGC | -0.261
AAACACCC | -0.12
ACGGAATA | 0.211
ACGCCGGA | -0.0856
ACAATGAA | 0.0744
GGCTTGAC | -0.139
CCCCCCAG | -0.364
CGCTGTGA | -0.0181
AGCCGGTA | -0.242
ATTGGTCG | 0.121
GGGACAGA | -0.12
GATTACAA | 0.188
CCGGCGCA | -0.0431
